The list shows a part of the results. Most values come without repeats; read them as rough.

Four compounds from the supplement of paper PMC4604168 (melanoma cell lines) can be followed below.
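Further: cell number obtained by counting DAPI-stained nuclei in high-throughput microscope images with image analysis software, screen run in 1,536-well plates.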

The test deals with A101D. Kind of test: cell count relative to DMSO control; melanoma cells; higher = more viable cells. Conditions: library dose: low library concentration; 72 h.
Compound `Cn1cnc2c(F)c(Nc3ccc(Br)cc3Cl)c(C(=O)NOCCO)cc21` [selumetinib] + Cc1cc(Nc2cc(N3CCN(C)CC3)nc(/C=C/c3ccccc3)n2)n[nH]1 [ENMD2076] (first compound 0.015 µM, partner dose 0.04 µM) gave a cell count of 87.5%. The figure for `COc1cc([C@@H]2c3cc4c(cc3[C@@H](O[C@@H]3O[C@@H]5CO[C@@H](C)O[C@H]5[C@H](O)[C@H]3O)[C@H]3COC(=O)[C@H]23)OCO4)cc(OC)c1O` [etoposide] + Nc1nc(F)nc2c1ncn2[C@@H]1O[C@H](CO)[C@@H](O)[C@@H]1O [fludarabine] (first compound 0.02 µM, partner dose 0.2 µM) is 98.1%; for `COc1cc([C@@H]2c3cc4c(cc3[C@@H](O[C@@H]3O[C@@H]5CO[C@@H](C)O[C@H]5[C@H](O)[C@H]3O)[C@H]3COC(=O)[C@H]23)OCO4)cc(OC)c1O` [etoposide] + Cn1sc(=O)n(Cc2ccccc2)c1=O [TDZD-8] (first compound 0.02 µM, partner dose 0.4 µM) it is 103%; for `Cn1cnc2c(F)c(Nc3ccc(Br)cc3Cl)c(C(=O)NOCCO)cc21` [selumetinib] + CO[C@H]1C[C@@H]2CC[C@@H](C)[C@@](O)(O2)C(=O)C(=O)N2CCCC[C@H]2C(=O)O[C@H]([C@H](C)C[C@@H]2CC[C@@H](OCCO)[C@H](OC)C2)CC(=O)[C@H](C)/C=C(\C)[C@@H](O)[C@@H](OC)C(=O)[C@H](C)C[C@H](C)/C=C/C=C/C=C/1C [everolimus] (first compound 0.015 µM, partner dose 0.02 µM) it is 71.3%.
